Assay results taken from the antibiotic and cytotoxicity screens of Wong et al. (2023).
The list shows a part of the results.

Test system: HepG2
Test: cytotoxicity call (relative viability < 0.9)
Details: 10 µM

Row | SMILES | cytotoxicity call
1 | COc1ccc(S(=O)(=O)Nc2ccc3c(c2)CC(=O)N([C@@H](C)CO)C[C@@H](C)[C@@H](CN(C)S(=O)(=O)c2ccc(OC)cc2)O3)cc1 | inactive
2 | CC(=O)OC[C@@H](OC(C)=O)[C@H](OC(C)=O)[C@H](OC(C)=O)[C@H](OC(C)=O)[C@@H](COC(C)=O)OC(C)=O | inactive
3 | Cc1noc(C)c1NC(=O)Nc1ccc2c(c1)C(=O)N([C@@H](C)CO)C[C@H](C)[C@H](CN(C)Cc1ccc(-c3ccccc3)cc1)O2 | inactive
4 | CC(C)(C)OC(=O)NCCOCCOCCOc1ccc(N(C(=O)CCl)[C@@H](C(=O)NCCc2ccccc2)c2cccs2)cc1Cl | active
5 | C[C@@H]1CCCCO[C@@H](CN(C)C(=O)C2CCCCC2)[C@@H](C)CN([C@@H](C)CO)C(=O)c2cc(NC(=O)Nc3ccc(C(F)(F)F)cc3)ccc2O1 | inactive
6 | C[C@H](CO)N1C[C@H](C)[C@@H](CN(C)Cc2ccc(Cl)c(Cl)c2)OCCCC[C@H](C)Oc2ccc(NC(=O)C3CCCCC3)cc2C1=O | inactive
7 | COCC(=O)N1C[C@@H](C)[C@@H](OC)CN(C)C(=O)c2cc(NC(=O)Nc3ccccc3)ccc2OC[C@@H]1C | inactive
8 | C[C@@H]1CCCCO[C@@H](CN(C)C(=O)CCCN(C)C)[C@@H](C)CN([C@H](C)CO)C(=O)c2cc(NC(=O)Nc3ccc(C(F)(F)F)cc3)ccc2O1 | inactive
9 | C[C@@H]1CCCCO[C@H](CN(C)C(=O)NC2CCCCC2)[C@@H](C)CN([C@H](C)CO)C(=O)c2cc(NC(=O)Nc3ccc(C(F)(F)F)cc3)ccc2O1 | inactive
